This note sets out measurements from PMC4336329 (PLoS ONE, 2015).

Hit rate of the full screen: of about 310,000 compounds, about 2,200 (0.71%) showed an effect of 50% or more. Effects have a minus sign here. The list shows a part of the results.

The target of the test is human ether-à-go-go-related gene (hERG) potassium channel (human, UniProt Q12809). As to the kind of experiment: primary screen, population patch clamp on CHO cells stably expressing hERG.
human ether-à-go-go-related gene (hERG) potassium channel, sequence (Q12809 whole entry, looked up): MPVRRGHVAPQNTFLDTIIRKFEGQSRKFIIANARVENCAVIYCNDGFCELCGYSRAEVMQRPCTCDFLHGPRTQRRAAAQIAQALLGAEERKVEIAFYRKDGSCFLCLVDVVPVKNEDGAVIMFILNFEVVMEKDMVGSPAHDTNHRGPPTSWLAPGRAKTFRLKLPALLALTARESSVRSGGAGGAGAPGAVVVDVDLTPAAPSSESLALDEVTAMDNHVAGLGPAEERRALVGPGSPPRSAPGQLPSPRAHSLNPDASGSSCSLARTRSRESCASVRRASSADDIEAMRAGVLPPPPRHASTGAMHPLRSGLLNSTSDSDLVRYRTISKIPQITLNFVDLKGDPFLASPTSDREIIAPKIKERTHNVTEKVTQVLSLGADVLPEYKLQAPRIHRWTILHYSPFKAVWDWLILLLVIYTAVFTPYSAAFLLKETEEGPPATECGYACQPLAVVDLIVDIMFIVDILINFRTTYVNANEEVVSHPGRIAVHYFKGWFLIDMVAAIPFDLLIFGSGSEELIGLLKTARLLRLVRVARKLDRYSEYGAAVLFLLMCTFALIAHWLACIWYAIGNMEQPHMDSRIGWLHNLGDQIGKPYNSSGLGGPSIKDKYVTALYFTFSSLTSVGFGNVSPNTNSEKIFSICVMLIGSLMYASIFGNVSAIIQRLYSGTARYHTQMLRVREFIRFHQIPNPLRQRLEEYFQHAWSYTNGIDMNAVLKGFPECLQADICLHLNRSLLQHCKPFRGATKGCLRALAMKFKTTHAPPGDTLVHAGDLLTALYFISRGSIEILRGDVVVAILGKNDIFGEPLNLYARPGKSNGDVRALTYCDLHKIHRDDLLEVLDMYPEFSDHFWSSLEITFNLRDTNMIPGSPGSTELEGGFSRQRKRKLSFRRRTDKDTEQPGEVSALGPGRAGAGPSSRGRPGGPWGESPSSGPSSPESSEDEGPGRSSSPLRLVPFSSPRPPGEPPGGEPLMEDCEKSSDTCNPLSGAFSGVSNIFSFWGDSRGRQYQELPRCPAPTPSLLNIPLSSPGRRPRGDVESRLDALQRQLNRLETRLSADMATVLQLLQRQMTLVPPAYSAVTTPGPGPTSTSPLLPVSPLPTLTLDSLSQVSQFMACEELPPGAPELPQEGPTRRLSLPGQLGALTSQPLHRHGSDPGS
Regarding `N#CC1=C(N)NC(SCC(=O)c2ccc(Cl)cc2)=C(C#N)C12CCCC2`, the “hERG current change (%, negative = inhibition) at 1uM” value worked out at 1.61%.

Turning to `Cc1ccc(NC(=O)CN(C)C(=O)CSc2nc(C)cs2)cc1`, the “hERG current change (%, negative = inhibition) at 1uM” value was determined as 3.7%.

Turning to `COCC(C)n1c(C)cc(C(=O)Cn2nc(C(=O)O)c3ccccc3c2=O)c1C` (centres unmarked), the “hERG current change (%, negative = inhibition) at 1uM” value is reported as -0.976%.

As for `CC1(C)C2CC=C(/C=N/NC(=O)C3CC3)C1C2` (centres unmarked), the “hERG current change (%, negative = inhibition) at 1uM” value was found to be 10.6%.

`O=C(O)c1cccc(NC(=O)C23CC4CC(C2)CC(n2cnc(Cl)n2)(C4)C3)c1`: the “hERG current change (%, negative = inhibition) at 1uM” value is given as -10.2%.

As for `COC(=O)c1cc2occc2n1CC(=O)Nc1ccc(OC)c(OC)c1`, the “hERG current change (%, negative = inhibition) at 1uM” value turned out to be 11%.

Turning to `Cc1ccccc1OCCC(=O)OCC(=O)NC(C)c1ccccc1` (centres unmarked), the “hERG current change (%, negative = inhibition) at 1uM” value is -0.773%.

For the compound `O=C(NCc1ccccc1F)C1CCC(=O)N(Cc2ccc(Cl)cc2)C1` (centres unmarked), the “hERG current change (%, negative = inhibition) at 1uM” value is reported as -7.43%.

With `CCn1c(-c2c(Cl)c(C)nn2C)n[nH]c1=S`, the “hERG current change (%, negative = inhibition) at 1uM” value worked out at 5.26%.

Consider `Cc1cc(CN2CCC(n3nccc3NC(=O)c3ccccc3Cl)CC2)cc(C)c1O`, for which the “hERG current change (%, negative = inhibition) at 1uM” value is listed as -64.4%.

`Cc1csc(CCc2nc(C)cs2)n1`: the “hERG current change (%, negative = inhibition) at 1uM” value turned out to be 15%.

On to `CCn1ncc(Br)c1C(=O)Nc1ccc(F)cc1F`, for which the “hERG current change (%, negative = inhibition) at 1uM” value is reported as 14.1%.

For the compound `Cc1cc2c(cc1S(=O)(=O)Nc1c(C)cccc1C)n(C)c(=O)c(=O)n2C`, the “hERG current change (%, negative = inhibition) at 1uM” value was found to be 1.4%.

Consider `NC(=O)c1ccc(NC(=O)CCN2C(=O)c3ccccc3C2=O)cc1`, for which the “hERG current change (%, negative = inhibition) at 1uM” value is 10.8%.

With `COC(=O)c1ccc2c(=O)n(CCCN3CCCC3=O)c(=S)[nH]c2c1`, the “hERG current change (%, negative = inhibition) at 1uM” value was -7.34%.

In the case of `CC(=O)Nc1ccc(NC(=O)CSc2nnc(NC(=O)c3cccc(F)c3)s2)cc1`, the “hERG current change (%, negative = inhibition) at 1uM” value is listed as 17.6%.

Take `O=C(O)CCC(=O)N(Cc1cccs1)Cc1cccs1`: the “hERG current change (%, negative = inhibition) at 1uM” value stood at 4.24%.

For `Cc1nc(-c2ccccc2Cl)sc1C(=O)/C=C/N(C)C`, the “hERG current change (%, negative = inhibition) at 1uM” value is recorded as 12.7%.

As to `COc1ccc2c(c1OC)C(=O)N(c1nc(SC)n[nH]1)C2=O`, the “hERG current change (%, negative = inhibition) at 1uM” value is recorded as 15.2%.

Consider `Cc1cccc(NC(=S)NNC(=O)c2ccco2)c1`, for which the “hERG current change (%, negative = inhibition) at 1uM” value came out at 6.7%.

On to `CCCn1c(C(O)c2cc(OC)ccc2OC)nc2ccccc21` (centres unmarked), for which the “hERG current change (%, negative = inhibition) at 1uM” value was determined as 0.412%.

Turning to `COc1cc(NC(=O)COC(=O)CNC(=O)C23CC4CC(CC(C4)C2)C3)cc(OC)c1`, the “hERG current change (%, negative = inhibition) at 1uM” value stood at 14.6%.

On to `CCOc1c2ccc(C(=O)NCc3ccc(C)cc3)cc2nn1CCOC`, for which the “hERG current change (%, negative = inhibition) at 1uM” value is listed as 15.3%.

As to `Cc1onc(-c2c(F)cccc2Cl)c1C(=O)OCn1nnc2ccccc2c1=O`, the “hERG current change (%, negative = inhibition) at 1uM” value turned out to be 14.9%.

Turning to `COc1ccc(NC(=O)COC(=O)Cn2c(C)nc3ccccc32)cc1OC`, the “hERG current change (%, negative = inhibition) at 1uM” value is on record as 14.4%.

On to `Clc1cccc(CNCCc2c[nH]c3ccccc23)c1.O=C(O)C(=O)O`, for which the “hERG current change (%, negative = inhibition) at 1uM” value is 7.52%.

In the case of `Cc1ccc(NC(=O)N2CCC(C(N)=O)CC2)cc1`, the “hERG current change (%, negative = inhibition) at 1uM” value is listed as 9.5%.

`CCCc1cc(=O)n2[nH]c(C)nc2n1`: the “hERG current change (%, negative = inhibition) at 1uM” value worked out at 9.03%.

On to `O=C(CNC(=O)c1ccc(Cl)cc1)OCn1nnc2ccccc2c1=O`, for which the “hERG current change (%, negative = inhibition) at 1uM” value was determined as 10.7%.

For the compound `Brc1ccc(OCCOCCOc2cccc3cccnc23)cc1`, the “hERG current change (%, negative = inhibition) at 1uM” value worked out at 0.0171%.

Consider `CN(C)Cc1c(C(=O)N/N=C/c2cccnc2)nnn1-c1nonc1N`, for which the “hERG current change (%, negative = inhibition) at 1uM” value turned out to be 10.4%.

In the case of `CCCCSc1nc(C)[nH]c1[N+](=O)[O-]`, the “hERG current change (%, negative = inhibition) at 1uM” value came out at 13.9%.

Consider `O=C1CC(C(=O)N2CCc3ccccc32)CN1c1ccc(F)cc1` (centres unmarked), for which the “hERG current change (%, negative = inhibition) at 1uM” value is listed as -17.9%.

Turning to `O=[N+]([O-])c1ccc(-c2nn(-c3ccccc3)cc2/C=N/n2c(-c3cccs3)n[nH]c2=S)cc1`, the “hERG current change (%, negative = inhibition) at 1uM” value was 15.9%.

In the case of `CCOC(=O)C1CSC(CC(=O)Nc2ccc(OCC)cc2)C(=O)N1` (centres unmarked), the “hERG current change (%, negative = inhibition) at 1uM” value was -5.01%.

`COc1ccccc1NC(=O)NC1(C(=O)N2CCC(C)CC2)CCCCC1`: the “hERG current change (%, negative = inhibition) at 1uM” value came to 17.8%.

Take `COCCn1c(SCC(=O)NCCc2ccccc2)nc2c([nH]c3ccccc32)c1=O`: the “hERG current change (%, negative = inhibition) at 1uM” value turned out to be 20.6%.

With `COc1cc([C@@H]2CC=C(C(=O)O)[C@H](c3ccc(Cl)cc3)N2S(=O)(=O)c2ccc(C)cc2)cc(OC)c1OC`, the “hERG current change (%, negative = inhibition) at 1uM” value was 4.44%.

In the case of `O=c1[nH]c(CN2CCN(Cc3ccccc3)CC2)nc2scc(-c3ccccc3)c12`, the “hERG current change (%, negative = inhibition) at 1uM” value was -2.35%.

As for `CC(=O)Nc1ccc(S(=O)(=O)NNC(=O)COc2cccc3ccccc23)cc1`, the “hERG current change (%, negative = inhibition) at 1uM” value came to 8.5%.

In the case of `CNC[C@@H](CC1CCCCC1)NC[C@H](CC(C)C)NCCc1cccc(C(F)(F)F)c1`, the “hERG current change (%, negative = inhibition) at 1uM” value came to 7.55%.

As to `COc1ccccc1CNC(=O)c1ccc2c(=O)n3c(nc2c1)CCCCC3`, the “hERG current change (%, negative = inhibition) at 1uM” value came to 8.59%.

With `CCOC(=O)C1=C(C)Nc2[nH]c(=O)[nH]c(=O)c2C1c1cccs1` (centres unmarked), the “hERG current change (%, negative = inhibition) at 1uM” value was determined as 2.68%.

As for `COc1ccc(-n2c(=O)cc(N3CCN(c4ccccc4F)CC3)[nH]c2=O)cc1`, the “hERG current change (%, negative = inhibition) at 1uM” value is given as -0.226%.
